# Assay results published in PMC4336329 (PLoS ONE, 2015).
# The campaign covered roughly 310,000 compounds. About 14,000 (4.5%) showed an effect of 50% or more. The effect is printed as a negative number. The list shows a part of the results.
# Molecular target: human ether-à-go-go-related gene (hERG) potassium channel (human, UniProt Q12809)
# Experiment: primary screen, population patch clamp on CHO cells stably expressing hERG
# 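Note: peak tail current of the secondary pulse compared with the same well before compound.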
# Chain of human ether-à-go-go-related gene (hERG) potassium channel (Q12809 whole entry, looked up): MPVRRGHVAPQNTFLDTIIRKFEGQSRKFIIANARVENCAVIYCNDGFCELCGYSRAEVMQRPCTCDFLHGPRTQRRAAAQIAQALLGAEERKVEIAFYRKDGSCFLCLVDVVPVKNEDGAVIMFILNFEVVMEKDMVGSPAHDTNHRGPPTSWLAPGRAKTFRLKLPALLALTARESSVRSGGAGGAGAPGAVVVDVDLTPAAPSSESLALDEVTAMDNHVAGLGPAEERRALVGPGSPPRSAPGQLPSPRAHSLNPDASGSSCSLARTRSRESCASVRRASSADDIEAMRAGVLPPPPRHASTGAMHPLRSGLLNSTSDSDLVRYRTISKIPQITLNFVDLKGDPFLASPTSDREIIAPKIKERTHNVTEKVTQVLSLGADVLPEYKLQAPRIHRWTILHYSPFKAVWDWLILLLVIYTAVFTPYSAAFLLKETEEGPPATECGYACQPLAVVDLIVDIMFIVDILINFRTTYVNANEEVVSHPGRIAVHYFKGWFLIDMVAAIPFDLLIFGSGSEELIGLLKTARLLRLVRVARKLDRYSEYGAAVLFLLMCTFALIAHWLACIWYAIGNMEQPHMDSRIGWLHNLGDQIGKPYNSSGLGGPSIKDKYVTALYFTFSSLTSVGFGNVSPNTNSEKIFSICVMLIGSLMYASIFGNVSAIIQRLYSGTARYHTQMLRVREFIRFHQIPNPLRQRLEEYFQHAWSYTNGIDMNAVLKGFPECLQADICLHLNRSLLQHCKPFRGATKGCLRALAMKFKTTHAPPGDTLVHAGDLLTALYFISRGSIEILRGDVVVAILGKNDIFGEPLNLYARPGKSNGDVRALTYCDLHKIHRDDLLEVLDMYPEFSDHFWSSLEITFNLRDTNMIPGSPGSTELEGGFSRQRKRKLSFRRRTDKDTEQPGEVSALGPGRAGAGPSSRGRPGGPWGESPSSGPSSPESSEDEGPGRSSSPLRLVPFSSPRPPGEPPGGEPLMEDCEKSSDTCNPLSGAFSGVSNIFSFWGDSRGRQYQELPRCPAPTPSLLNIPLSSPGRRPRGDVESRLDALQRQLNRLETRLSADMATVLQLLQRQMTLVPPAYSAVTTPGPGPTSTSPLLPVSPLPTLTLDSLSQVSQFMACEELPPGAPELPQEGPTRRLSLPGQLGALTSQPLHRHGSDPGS
row,SMILES,"hERG current change (%, negative = inhibition) at 10uM"
1,COc1ccc(NC(C)=O)cc1S(=O)(=O)Nc1cccc(S(=O)(=O)NC2=NCCC2)c1,9.52%
2,Cc1ccc2c(c1)c1c3n2CCCNC3CCC1 (stereo not shown),-49.4%
3,COc1ccc(NC(=O)CN(C)S(=O)(=O)c2ccc(Br)s2)cc1,9.34%
4,CCCCCCCNC(=O)COc1ccc2c(c1)C(=O)CC(C)(C)O2,-14.4%
5,CC(CN(C)Cc1ccccc1)OC(=O)c1ccc(F)cc1.Cl (stereo not shown),-9.59%
6,COC(=O)c1ccc(COc2ccc(-c3nnn(CC(N)=O)n3)cc2)cc1,11.3%
7,COCCN1C(=O)C(CC(=O)Nc2ccc(C(C)=O)cc2)SC1=Nc1ccccc1 (stereo not shown),-3.86%
8,COc1cc(-c2c(C#N)c(=O)[nH]c3c2c(C)nn3-c2ccccc2)ccc1O,16.3%
9,CCOc1cccc(NC(=O)Cn2nc(-c3ccc4c(c3)OCCO4)ccc2=O)c1,10.9%
10,COc1ccc(C(=O)NCC(=O)N/N=C/c2ccc([N+](=O)[O-])s2)cc1OC,-31.5%
11,Cc1cccc(-n2ncc3c(N4CCCC4)ncnc32)c1,13%
12,O=C(Cc1ccccc1)N1CCN(CC2CC3C=CC2C3)CC1.O=C(O)C(=O)O (stereo not shown),-5.73%
13,Cc1cc(/C=N/NC(=O)CC2(C)OCCO2)c(C)n1-c1ccc(Cl)c(Cl)c1,3.62%
14,COc1ccc(S(=O)(=O)N2CC(C)N(C(=O)N(C)C)C2C)cc1 (stereo not shown),12.8%
15,CC(C)[C@H](CO)Nc1nc(NCc2ccc(S(N)(=O)=O)cc2)c2ncn(C(C)C)c2n1,5.05%
16,O=C(c1cccc(C(F)(F)F)c1)C1CCCN(Cc2ccc(OCCO)cc2)C1 (stereo not shown),-69.8%
17,CCOc1ccc(CCNC(=O)C2CC=CCC2C(=O)OC(C)C)cc1OCC (stereo not shown),27.8%
18,O=C(Nc1cccc(F)c1)Nc1ccc2c(c1)OCO2,19.2%
19,Cc1cccc(OCC(=O)NNC(=O)Cn2c(=O)cnc3ccccc32)c1,3.65%
20,Cl.c1ccc(SCCCCN2CCOCC2)cc1,5.1%
21,Cc1ccc(S(=O)(=O)N2CCN(c3ccnc4cc(Cl)ccc34)CC2)cc1C,30.7%
22,Cc1ccc(-n2ncc3c2ncn2nc(-c4ccco4)nc32)c(C)c1,6.33%

row,SMILES,"hERG current change (%, negative = inhibition) at 10uM"
1,Cc1cc(C)c2c(CN3CCC(C)CC3)cc(=O)oc2c1C,13%
2,COc1ccc(/C=N/NC(=O)c2cc(C)n(-c3ccccc3)c2C)cc1OC,-53.2%
3,CC(C)CCn1c(SCc2ccc(Cl)cc2)nc2c1c(=O)[nH]c(=O)n2C,3.75%
4,CC1=C(C(=O)Nc2ccc(F)cc2)C(c2ccncc2)C2=C(CCCC2=O)N1 (stereo not shown),-20.1%
5,CSC1CCCCC1(O)CSc1nc2c(cc1C#N)CCCC2 (stereo not shown),1.25%
6,CCCCC(=O)Nc1cc(C)c(NC(=O)c2ccco2)cn1,11.2%
7,Cc1ccc(-n2cc(CNCCN3CCOC3=O)c(-c3cccc(C)c3)n2)cc1,-69.1%
8,CN(C)C(CNC(C(=O)Nc1ccc(F)cc1)c1ccccc1)c1ccccc1 (stereo not shown),-70.6%
9,CCn1c(/C=C/Nc2ccccc2)[n+](CC)c2ccc(Cl)cc21.[I-],-78.6%
10,CCOC(=O)C(=CNc1nc(-c2ccccc2)c(C(=O)Nc2ccc(-c3ccccc3)cc2)s1)C(=O)OCC,4.56%
11,Cc1cccc(NC(=S)N(CCN(C)C)Cc2cc3cc(C)ccc3[nH]c2=O)c1,-16.5%
12,COc1ccc(CCNC(=O)CN(Cc2ccc(Cl)cc2)S(C)(=O)=O)cc1OC,-3.36%
13,COc1ccc(OCCC(=O)OCC(=O)NC(=O)NC2CCCCC2)cc1,13.2%
14,CN(C)c1ccnc2sc3c(NCC(O)CO)ncnc3c12 (stereo not shown),5.66%
15,O=S(=O)([O-])CCS.[Na+],17.5%
16,CSCC[C@H](NC(=O)c1ccc(Cl)c([N+](=O)[O-])c1)c1nc2ccccc2[nH]1,-20.2%
17,COc1ccc(C(C)=O)cc1COC(=O)c1c(C)noc1C,-7.22%
18,CCOC(=O)N1CCN(C(=O)/C(=C/c2cccc3ccccc23)NC(=O)c2ccc(OC)c(OC)c2)CC1,-3.14%
19,O=C1C2C3C=CC(C3)C2C(=O)N1CCN1CCN(S(=O)(=O)c2ccc3ccccc3c2)CC1 (stereo not shown),-2.23%
20,O=C(Nc1ccccc1)c1ccccc1CCc1ccccc1,11.8%
21,COc1ccc(N(C)C(=O)c2cc3c(s2)-c2ccccc2S(=O)(=O)C3)cc1,-39.9%
22,CN(c1ccccc1)S(=O)(=O)c1cccc(NS(=O)(=O)c2ccc(/C=C/C(=O)O)cc2)c1,5.18%

row,SMILES,"hERG current change (%, negative = inhibition) at 10uM"
1,O=c1oc2ccccc2c(NC2CCCCC2)c1NS(=O)(=O)c1ccc(Br)cc1,-18.7%
2,CCNc1nc(Oc2ccc(C#N)cc2)cc(C(F)(F)F)n1,4.41%
3,CCN1CCN(CCNC(=O)Cn2c(=O)c3cccn3c3ccc(F)cc32)CC1,-2.61%
4,CC1CCc2cc(F)cc3c(=O)c(C(=O)O)cn1c23 (stereo not shown),13%
5,COc1ccc(C2CC(=O)n3nc(C45CC6CC(CC(C6)C4)C5)nc3S2)cc1OC (stereo not shown),26.1%
6,Cc1cc(C)cc(C(=O)NC(CC(N)=O)c2ccc(N3CCC(Cc4ccccc4)CC3)c([N+](=O)[O-])c2)c1 (stereo not shown),8.2%
7,COC(=O)C1=C(C)NC(=O)/C1=C\N(C)C,18%
8,COc1ccc(C(=O)NCc2nnc(SCC(=O)NC3CCCCC3)o2)cc1,17.2%
9,CC1(C)CC(n2[nH]c(=O)c3c2NC(=O)CSC3c2ccccc2)CCO1 (stereo not shown),11.6%
10,N#Cc1nc(-c2ccco2)oc1N1CCC(Cc2ccccc2)CC1,0.874%
11,Cc1ccccc1C(=O)N/N=C/c1ccc(OCC(=O)N2CCCCC2)cc1,4.38%
12,Cn1c(=O)n(Cc2ccc(Cl)cc2)c(=O)c2c1nc1n2CCN1Cc1ccco1,-21.5%
13,CNC(=O)c1[nH]cnc1C(=O)Nc1ccc(C)cc1,10.9%
14,Cc1nn(C)c(C(=O)N/N=C/c2cc3c(cc2Br)OCO3)c1Br,11.2%
15,CC1=C(C(=O)OCC2CCCO2)C(c2ccccc2Cl)NC(=O)N1 (stereo not shown),14.1%
16,Cc1ccc2c(c1)C1(SCCS1)C(=O)N2,13.2%
17,COCCn1c(SC(C)C(=O)NC2CC2)nnc1-c1cccc(C)c1 (stereo not shown),6.4%
18,O=C(Nc1ccc(N2CCCCC2)c(Cl)c1)c1ccc2c(c1)OCCO2,-1.06%
19,O=C(CNC(=O)c1ccco1)OCc1ccc(C(=O)c2ccccc2)cc1,-69.2%
20,CC(CCCC(C)(C)O)NC(=O)c1ccc2oc(CCc3ccccc3)nc2c1 (stereo not shown),12.4%
21,Cc1nn(-c2ccccc2)c2nc3c(cc12)C(=O)CCC3,-7.63%
22,Cc1ccccc1C(=O)c1cccn1CC(=O)NCc1cccc(Cl)c1,20.2%

row,SMILES,"hERG current change (%, negative = inhibition) at 10uM"
1,O=C(COC(=O)C1CC1)Nc1ccc([N+](=O)[O-])cc1C(F)(F)F,-7.44%
2,C=CCNCc1cccn1-c1ccccc1.O=C(O)C(=O)O,8.54%
3,O=C(CCS(=O)(=O)c1cc(Br)cc2c1N(C(=O)C1CC1)CC2)NCC1CCCO1 (stereo not shown),10.8%
4,COc1cc(/C=C2\C(=N)N3N=C(S(C)(=O)=O)SC3=NC2=O)ccc1OS(=O)(=O)c1ccccc1,24.3%
5,CN(C)CCn1cnc2c(c1=N)C(c1ccccc1)c1ccc3ccccc3c1O2 (stereo not shown),-79.2%
6,O=S(=O)(c1ccc2c(c1)OCCO2)N1CCC(c2nc3ccc(Cl)cc3[nH]2)CC1,-56.6%
7,Cc1ccc(S(=O)(=O)N2CCN(Cc3cccc(F)c3)CC2)cc1,-9.78%
8,CCCCCC(=O)Cc1cc(O)cc2c1C(=O)Oc1cc(O)c(C(=O)O)c(CCCCC)c1O2,8.9%
9,Cc1nc(C(F)(F)F)ccc1C(=O)Nc1ccccc1N1CCOCC1,12.2%
10,Cc1cc2ccccn2c1C(=O)c1cc([N+](=O)[O-])cc([N+](=O)[O-])c1,12.1%
11,COCCN(C(=O)CC1C(=O)NCCN1Cc1ccc(-c2ccccc2)cc1)C(C)C (stereo not shown),1%
12,N#C/C(=N\Nc1ccc(Cl)cc1)C(=N)N1CCCCCC1,62.5%
13,Cc1ccc(C(=O)O)cc1NC(=S)NC(=O)Cc1ccccc1,6.02%
14,CCOc1ccc(-c2cc(C(=O)NCCCN3CCCC3)c3ccccc3n2)cc1,-19.4%
15,Cl.O=[N+]([O-])c1ccc(O)c(Nc2ncnc3ccc(Br)cc23)c1,25.3%
16,COc1ccc(N(C(=O)COc2ccc(F)cc2)S(=O)(=O)c2ccc(C)cc2)cc1,0.866%
17,CC1CCCN(c2ccc(C(=O)NCc3ccccc3)cn2)C1 (stereo not shown),-18.4%
18,COc1ccc(-c2nn(-c3ccccc3C)cc2CNC(C)c2cn(C)nc2C)cc1F (stereo not shown),-1.99%
19,COc1cccc(/C=N/n2c(-c3n[nH]c4c3CCC4)n[nH]c2=S)c1O,30.3%
